Reference: the supplement of paper PMC9151546
Single values are uncertain, as repeats are few or missing.

Columns and labels:
CHO-K1 [1] = assay: micronucleus frequency (% of nucleated events); higher = more micronuclei (genotoxic)
CHO-K1 [2] = assay: relative survival (nuclei to bead ratio vs DMSO control) (% of vehicle control); higher = more surviving cells
CHO-K1 [3] = assay: hypodiploid nuclei frequency (% of nucleated events); higher = more hypodiploid events (aneugenic)
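Throughout, for hypodiploid nuclei frequency (% of nucleated events): hypodiploid nuclei gated on a flow cytometer with 488 nm excitation after SYTOX Green staining, cultures at 37 °C, positive controls vinblastine without S9 and cyclophosphamide with S9.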
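Throughout, for micronucleus frequency (% of nucleated events): cells lysed with nuclei stained by SYTOX Green, then micronucleus-gated events counted against nucleated events by flow cytometry with 488 nm excitation.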
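Throughout, for relative survival (nuclei to bead ratio vs DMSO control): Lysed-cell nuclei stained with SYTOX Green and counted against counting beads by flow cytometry at 488 nm excitation, with vinblastine (no S9) and cyclophosphamide (plus S9) as positive controls.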

CC1(C)NC(=O)N(c2ccc([N+](=O)[O-])c(C(F)(F)F)c2)C1=O [Nilutamide]
Details | hypodiploid nuclei frequency, CHO-K1 [3] [%] | micronucleus frequency, CHO-K1 [1] [%] | relative survival, CHO-K1 [2]
concentration: 4.5 (µM), S9 metabolic activation: with S9, exposure time: 3-4 hours | 0.3 | 0.88 | 118
concentration: 4.5 (µM), S9 metabolic activation: without S9, exposure time: 24 hours | 0.84 | 1.66 | 119
concentration: 5.63 (µM), S9 metabolic activation: with S9, exposure time: 3-4 hours | 0.34 | 1.06 | 117
concentration: 5.63 (µM), S9 metabolic activation: without S9, exposure time: 24 hours | 0.8 | 1.26 | 118
concentration: 7.04 (µM), S9 metabolic activation: with S9, exposure time: 3-4 hours | 0.26 | 0.8 | 110
concentration: 7.04 (µM), S9 metabolic activation: without S9, exposure time: 24 hours | 0.98 | 1.48 | 112
concentration: 8.8 (µM), S9 metabolic activation: with S9, exposure time: 3-4 hours | 0.28 | 1.12 | 119
concentration: 8.8 (µM), S9 metabolic activation: without S9, exposure time: 24 hours | 1 | 1.32 | 118
concentration: 11 (µM), S9 metabolic activation: with S9, exposure time: 3-4 hours | 0.22 | 1.06 | 114
concentration: 11 (µM), S9 metabolic activation: without S9, exposure time: 24 hours | 0.8 | 1.24 | 109
concentration: 13.7 (µM), S9 metabolic activation: with S9, exposure time: 3-4 hours | 0.64 | 0.96 | 108
concentration: 13.7 (µM), S9 metabolic activation: without S9, exposure time: 24 hours | 0.78 | 1.54 | 100
concentration: 17.2 (µM), S9 metabolic activation: with S9, exposure time: 3-4 hours | 0.52 | 1 | 127
concentration: 17.2 (µM), S9 metabolic activation: without S9, exposure time: 24 hours | 1.12 | 1.52 | 114
concentration: 21.5 (µM), S9 metabolic activation: with S9, exposure time: 3-4 hours | 0.42 | 1.02 | 98.3
concentration: 21.5 (µM), S9 metabolic activation: without S9, exposure time: 24 hours | 0.84 | 1.38 | 93
concentration: 26.8 (µM), S9 metabolic activation: with S9, exposure time: 3-4 hours | 0.24 | 0.76 | 150
concentration: 26.8 (µM), S9 metabolic activation: without S9, exposure time: 24 hours | 1.38 | 1.88 | 84.5
concentration: 33.6 (µM), S9 metabolic activation: with S9, exposure time: 3-4 hours | 0.16 | 0.86 | 123
concentration: 33.6 (µM), S9 metabolic activation: without S9, exposure time: 24 hours | 0.96 | 1.92 | 93.7
concentration: 41.9 (µM), S9 metabolic activation: with S9, exposure time: 3-4 hours | 0.38 | 1 | 130
concentration: 41.9 (µM), S9 metabolic activation: without S9, exposure time: 24 hours | 1.74 | 1.98 | 86.9
concentration: 52.4 (µM), S9 metabolic activation: with S9, exposure time: 3-4 hours | 0.24 | 1.1 | 111
concentration: 52.4 (µM), S9 metabolic activation: without S9, exposure time: 24 hours | 1.62 | 2.24 | 88.3
concentration: 65.5 (µM), S9 metabolic activation: with S9, exposure time: 3-4 hours | 0.28 | 0.96 | 111
concentration: 65.5 (µM), S9 metabolic activation: without S9, exposure time: 24 hours | 1.94 | 2 | 80.1
concentration: 81.9 (µM), S9 metabolic activation: with S9, exposure time: 3-4 hours | 0.44 | 0.98 | 106
concentration: 81.9 (µM), S9 metabolic activation: without S9, exposure time: 24 hours | 2.08 | 2.12 | 70.7
concentration: 102 (µM), S9 metabolic activation: with S9, exposure time: 3-4 hours | 0.26 | 1.06 | 121
concentration: 102 (µM), S9 metabolic activation: without S9, exposure time: 24 hours | 3.16 | 2.6 | 73.5
concentration: 128 (µM), S9 metabolic activation: with S9, exposure time: 3-4 hours | 0.42 | 1.06 | 108
concentration: 128 (µM), S9 metabolic activation: without S9, exposure time: 24 hours | 2.64 | 2.36 | 74.1
concentration: 160 (µM), S9 metabolic activation: with S9, exposure time: 3-4 hours | 0.38 | 1.16 | 115
concentration: 160 (µM), S9 metabolic activation: without S9, exposure time: 24 hours | 3.88 | 2.78 | 60.3
concentration: 200 (µM), S9 metabolic activation: with S9, exposure time: 3-4 hours | 0.36 | 0.86 | 101
concentration: 200 (µM), S9 metabolic activation: without S9, exposure time: 24 hours | 3.3 | 3.04 | 60.1
